Laboratory results taken from the supplement of paper PMC11417369.
The list shows a part of the results.

Tested on: PfAP2-HC AP2 domain (GST-tagged)
Test: gcPBM binding intensity (ln(normalized median fluorescence intensity)); higher = stronger DNA binding
How it was run: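 Probes on an Agilent 4 × 180k array were primer-extended, double-stranded and 36 bp long, taken from intergenic genomic regions, with negative controls added. GST-tagged P. falciparum DNA-binding domains from E. coli, about 25 μg on average, were applied to the array for 1 h in 1× PBS containing 1% milk, 0.2 mg/ml BSA, 0.5% salmon testes DNA and 0.03% Triton X-100. Binding intensity, obtained after Alexa488 anti-GST antibody detection and a 488 nm scan, is the highest Masliner-normalised natural-log median intensity across replicate spots of either probe orientation.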

Point of comparison: “ATTTTTTTTATTTTTTATATAATTTTTTTATATTAT [CACACA_negctrl_site1521]”, “gcPBM binding intensity (ln)” value 9.77. Against it:
- TACTATATCGATACCAGTACAGATTTATAAATAATA [XGTACX_site7491] — lower, 9.46
- AAATATAATAATAATTTAAGAATCTAATATTTTATA [CACACA_negctrl_site831] — lower, 9.37
- TATATTAAGTATAAGACACACATATAGTAATAGAAA [CACACA_site5176] — higher, 10
- TTATAAAAAAAAATAACACACAGACATAAGAATAAA [CACACA_site9383] — higher, 10.2
- AAGTGTCAAAGTTACACACACAAACTTGTCATTTTT [CACACA_site837] — higher, 10.2
- ATATAACTTTTCTTAACACACAAAAAACAAAAATAA [CACACA_site2380] — lower, 9.71
- GGTATACATATTAAATGTACATATTTTAACAATAAG [XGTACX_site4868] — lower, 9.68
- GACATATAAATATACACACATACGTAAGTATATTAA [CACACA_site1790] — higher, 9.82
- TTTTTATGGATATTTATATTATATTATGATTAAAAA [TGCATGCA_negctrl_site204] — lower, 9.3
- TGTATAATATATATATGTACTTATGTATAATATTAT [XGTACX_site4328] — lower, 9.6
- AAGATATCTAAGGAAATTAAACTACCAAAATATATA [TGCATGCA_negctrl_site338] — lower, 9.59
- TGCATAAAAGTAAAAACATGCATGCCGTGGTATCTT [TGCATGCA_site664] — lower, 9.64
- AATATATTTATAAGCACACACTAATAAACACAGACA [CACACA_site4377] — higher, 10.5
- AAATATATATATATATATATATATGTGTGTGTATAT [GTGCAC_negctrl_site1] — higher, 10.1
- GTACATAATTATTATGCACACATATTTTTATGTATT [CACACA_site8132] — higher, 9.9
- AATAATACAAAAGTTCAACAAAAAAAAAAAAAAAAT [CACACA_negctrl_site952] — lower, 9.75
- CTTTATAATATTTGTTGTACACAAATATAACATATT [XGTACX_site709] — lower, 9.72
- ATTTAAATATATTATTGTACATATACCTAATAAGAA [XGTACX_site6655] — lower, 9.55
- ACTCCTATATAAATGAACCATATTCATAATATATAT [CACACA_negctrl_site1636] — lower, 9.64
- AAATGAAAGAATTAAAGTACATTTATATAATTTTAA [XGTACX_site3540] — lower, 9.54
- AAGAGAAAAACATACACACACAACAAAATATGTATA [CACACA_site2719] — higher, 10.4
- TATCCCTTAGAATACACACCCATATGAGTGTGAACT [CACACA_site7398] — lower, 9.63
- TGTTTTGTTTTTTGGGGTACATGTTTTGTATTATAT [XGTACX_site7997] — higher, 9.92
- ATATCTTATGTTATCACACACACACGCACAAAACAG [CACACA_site6800] — higher, 10.3
- TGTATTTATAAACATGCACACGTGGTTGTATTTATA [CACACA_site5762] — the same, 9.77
- ATTTGTTTACCTAAAAGTACAAATTTTTTATGTATA [XGTACX_site7689] — lower, 9.55
- ATATATATATATATATGTACATATATATATGTATAT [XGTACX_site3959] — lower, 9.72
- ATATTATTTTAAAGTACACACATATATTAATATATA [CACACA_site2315] — lower, 9.76
- TATACATACAGACCCACACACAAAAAAAAAAAAAAA [CACACA_site6536] — higher, 10.1
- AAGGCAAGCACTTAAACATGCATATAATAATATCAT [TGCATGCA_site698] — lower, 9.53
- ATAATATATATATATGCATGTACATATTTATCTTTA [TGCATGCA_site32] — lower, 9.73
- ATGTATTAAAAAAATTGTACTATAAAATGTAACCGC [XGTACX_site8083] — higher, 9.79
- AAAAAAAAAAAAAACATACACACAAATATATACATA [CACACA_site4010] — higher, 10
- GAATTTTTTTAATGTTGTACTTTTTTTTTTTTTTCT [XGTACX_site648] — lower, 9.49
- ACATATATATATATATATATATATATATTACATTTA [CACACA_negctrl_site627] — lower, 9.66
- ACATATTTTATTTTTTGTACACATATATTATTTTTT [XGTACX_site6528] — higher, 10.2
- TTTTTGTTAAACAGGGTGCTAATCTGAATTAATATT [GTGCAC_site9908] — lower, 9.39
- TTTCAAAAGTAATACTGTACTTATTTTTATGATTTA [XGTACX_site4184] — lower, 9.55
- TTATACATAAATTTTGTACACACAAAAAAAAAAAAG [CACACA_site8374] — higher, 9.86
- ATATTATTTATAGGGTGTACCTTATTATTATAAGAA [XGTACX_site7148] — lower, 9.34
- TAGAAAAACATTACGTGTACCAAACATCCTAGCAAC [XGTACX_site4888] — higher, 10.2
- TATAATATTATACATAGTACACATCACACATCGCAA [XGTACX_site4650] — higher, 9.99
- TATATACTTTTATGTACACACCTATAATATGGGTGA [CACACA_site5044] — lower, 9.73
- TTTGGTTATATTTAAAAAAGACTAATGAAAATTAAA [XGTACX_negctrl_site526] — lower, 9.35
- AAAAAAAAAAAAAATACACACATAAAATAAATAACA [CACACA_site439] — higher, 9.91
- AATTTACAAATATAATGTACATAATTATATATATAT [XGTACX_site278] — lower, 9.64
- AATAGTAAAAATCACTGTACGTTTATTTTTAAAATG [XGTACX_site1035] — lower, 9.75
- CCATATACAACCATACGTACATATATATATATATAT [XGTACX_site8193] — higher, 9.79
- CATACCATACATAAAACACACAAAATTTACAGAATA [CACACA_site7451] — higher, 10.2
- ATAATATTTTGAAACGGTACACTTTTAAAATACACT [XGTACX_site4423] — lower, 9.62
- AAAATAAGGAAAAAAAAAAAAAAAAAAAAAAAAAAG [CACACA_negctrl_site1291] — lower, 9.58
- AACACTACATAAAACTGTACAATAGTATTTTATTAT [XGTACX_site996] — lower, 9.74
- TTTTTTTTTATATTTAGTACATATATATTATTATAT [XGTACX_site3334] — lower, 9.76
- ACAAGATGATGGAAATGTACATAAAAAGAATCATAT [XGTACX_site8682] — higher, 9.96
- CTTAGTGTATTTGAATGTACGCATAAATATAATTAT [XGTACX_site2830] — lower, 9.55
- ATTATTAAAATGATATGTACGCACATAATATACATA [XGTACX_site3236] — lower, 9.7
- AAAAAAAAAAAACATACACACAAATATGTACATACA [CACACA_site7807] — higher, 9.95
- TATATATTAATATATGCATGTACGATTATTATAATA [TGCATGCA_site446] — lower, 9.56
- AATAAAAATCCACAAGCACACAAATGTACTTATATA [CACACA_site8783] — lower, 9.74
- TAAATACAAAAATGTACACACATATAAATATTTTTA [CACACA_site7612] — lower, 9.76
- TTAATTAAATATTATACACACAAAAAAATAACTTTA [CACACA_site6197] — lower, 9.66
- AAAGTGTTAACCTAATCTTTAGTTTTTAAACAATAT [CACACA_negctrl_site841] — lower, 9.53
- TGTATTTAAAATGGTTGTACATAAATAAAAATAAAA [XGTACX_site7771] — lower, 9.5
- TATTGAAACGTATAGACACACATATGATATATATAT [CACACA_site3226] — higher, 9.78
- ATTTATTTATTTATATGTACTTATATATGTATTTTC [XGTACX_site6269] — higher, 9.99
- TAATTTATTATATTTTGTACGTAAAATTATTATTGT [XGTACX_site8155] — lower, 9.6
- TAGGAAAAGAAAAGCACACACATAAATAAATATATA [CACACA_site504] — higher, 10.3
- AATATTTATTTTACATGTACTTATTTTTCTTTTAAC [XGTACX_site3631] — higher, 10.1
- AATATATATTTATATTGTACATATATATATATTTCT [XGTACX_site2603] — lower, 9.72
- CATTCATTTATTAATTGTACTTTTAAGGTTAAATAA [XGTACX_site5838] — lower, 9.25
- ATTATATATACACGCACACACACTTATATATATATA [CACACA_site9093] — higher, 10.7
- TTTTTAACATATCATACACACAACAACTTTTTATAG [CACACA_site1962] — higher, 9.84
- CAAGCCCTTCTGCTTACACACAGTAATTATTGTGTA [CACACA_site2953] — higher, 9.9
- TAAAAATATATACATACATGCATACATATATATGTA [TGCATGCA_site774] — lower, 9.52
- AAAAAAAAAAATATAACACACAAAAAATTGTATCGA [CACACA_site1144] — lower, 9.69
- ATATAGTAAAATTATACACACATGAATTTTCCCATA [CACACA_site3113] — higher, 9.81
- ACAAAATTTACAAAATGTACATATTGTAGATATTGT [XGTACX_site7618] — lower, 9.53
- CCATTAAATACATACACACCCACACCCAAAAAAAAA [CACACA_site4633] — higher, 10.8
- TATAAATAAAGACACACACACATATAAATAAATATA [CACACA_site7155] — higher, 10.5
- TTTATATACTATTCAAAGTGATAAATAATATATGAA [TGCATGCA_negctrl_site352] — lower, 9.52
- AAAAAAAAAAAACATACACACAATAAAATAGGGGTA [CACACA_site2399] — higher, 10.2
- ATTTATTTATTAAGATGTACTTATTAAAAATAATAA [XGTACX_site7392] — lower, 9.33
- ATTTATTCATTTGGGTGTACTATTTAAAAAAAACAA [XGTACX_site498] — lower, 9.39
- TATTTATATTTTAACACACACATATTTATATTTATA [CACACA_site7324] — higher, 10
- TATATATAATTTTATACATGCACATATTATATATAT [TGCATGCA_site1036] — higher, 9.82
- TATATTTTTTAAACCACACACAATATAGAGTATAAT [CACACA_site4510] — higher, 10.4
- TAAACATTTTTGCACGCACACAAAAAAAAAATAAAA [CACACA_site167] — higher, 10.3
